# Test results as given in PubChem BioAssay AID651820 (National Center for Advancing Translational Sciences (NCATS), 2012).
# Values joined by “and” are separate entries in the source; they are usually repeats but may differ in a detail not shown here. Equal entries are not always repeated. The campaign covered roughly 340,000 compounds. About 12,000 (3.5%) were called active. Inconclusive means that the source gave no clear call. Such entries were picked first, then a sample of the others. Calls come from the whole dose curve; as a rule, active = well fitted inhibition curve with a large enough effect; inconclusive = small, poorly fitted or top-dose-only effect, or another doubt; inactive = no such curve, though single readings can be large or run the other way. Where the call is inconclusive, the potency comes from a doubtful curve fit.
# Experiment: qHTS Assay for Inhibitors of Hepatitis C Virus (HCV)
# Settings: Huh7.5.1 HCVcc-Cre (HCVcc is cell-culture hepatitis C virus) infection, luciferase reporter, 44 h; series mostly up to 41.8 µM
# Outline: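 HCVcc-Cre virus at an moi near 0.5 was added right after compound to cells cultured 4 h from seeding (1,000 cells/well). Luciferase activity was determined 44 h later, 15 min after substrate addition at RT.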
# Potency is the fitted concentration of half-maximal effect; tags give direction and shape of the fitted curve.
row,SMILES,Potency
1,Oc1ccccc1-c1nc(NCc2ccccc2)c2ccccc2n1,active: 11.2 µM
2,CCOC(=O)c1c(-n2c(C)cc(/C=C3/C(=O)NC(=O)N(CC)C3=O)c2C)sc2c1CCCC2,inactive
3,CC(=O)Nc1ccc(C(=O)NCCc2ccccc2)cc1,inactive
4,Cc1cccc(N2CCN(C(=O)C(C)n3nc(C)n4c(cc5occc54)c3=O)CC2)c1C (stereo not given),active: 10 µM
5,O=C(C1COc2ccccc2O1)N1CCN(c2ccccc2Cl)CC1 (stereo not given),inactive
6,COc1cc(/C=C2\SC(=S)N(NC(=O)c3ccccc3OC)C2=O)ccc1O,inactive
7,COc1cc(Cl)ccc1OCc1cc(C(=O)NCc2cc(C(C)C)no2)no1,inactive
8,CCn1cc(C2=NC(CC(C)C)CO2)c2ccccc21 (stereo not given),active: 10 µM
9,Cc1ccc(COC(=O)c2cc(S(=O)(=O)N3CCOCC3)ccc2C)cc1,"inconclusive: 22.4 µM [inhibitor, single point]"
10,O=C1CCC[C@@H]2Cc3nc4ccc(O)cc4cc3[C@@H]3CCN1[C@H]23,"inconclusive: 31.6 µM [inhibitor, single point]"
11,COc1ccc2[nH]cc(CCNC(=S)NCCc3ccccc3)c2c1,"inconclusive: 11.2 µM [inhibitor, partial curve]"
12,CCOc1cc2c(cc1/C=C/c1noc(C)c1[N+](=O)[O-])OC(C)C2 (stereo not given),"inconclusive: 31.6 µM [inhibitor, single point]"
13,O=C(c1ccc2c(c1)OCO2)C1CCCN(Cc2cc(F)ccc2-n2cccn2)C1 (stereo not given),inactive
14,CCN1C(=O)[C@H]2[C@@H](c3ccc(-c4ccc(Cl)c(Cl)c4)cc3)N[C@@](C)(C(=O)OC)[C@H]2C1=O,inactive
15,CC(=O)/C(=N/Nc1cccc(C)c1)N1CCOCC1,inactive
16,O=Nc1c(O)n(Cc2c(Cl)cccc2Cl)c2ccccc12,inactive
17,O=C(CN1CCCCC1)NCC(=O)Nc1ccc(Br)cc1C(=O)c1ccccc1,active: 11.2 µM
18,O=c1cc(-c2ccco2)oc2ccc(Cl)cc12,"inconclusive: 5.62 µM [inhibitor, single point]"
19,CC(C)Oc1cccc(C(=O)N2CCCC2)c1,inactive
20,Cc1cccc(/C=N/n2c(COc3ccccc3)n[nH]c2=S)c1,inactive
21,CCc1cccc(NC(=O)Cc2ccc(OC)c(OC)c2)c1,"inconclusive: 15.8 µM [inhibitor, single point]"
22,O=S(=O)(NCCN1CCCC1)c1ccc(Br)cc1,inactive
23,CC(=O)c1cccc(NC(=O)N2CCCC2C(=O)Nc2ccccc2C)c1 (stereo not given),inactive
24,COc1ccc(C(=O)Nc2cc([N+](=O)[O-])ccc2N2CCN(C)CC2)cc1,"inconclusive: 31.6 µM [inhibitor, single point]"

row,SMILES,Potency
1,Cc1ccc(C)c(S(=O)(=O)N2CCN(c3nc(CN4CCOCC4)nc4sc(C)c(C)c34)CC2)c1,"inconclusive: 2.24 µM [inhibitor, full curve]"
2,COCCn1c(SCC(=O)NC2CCCCC2)nnc1-c1ccco1,inactive
3,COC(=O)CCCC1=CC2=C(c3ccccc3)C(=O)C(C)(OC(=O)C3CCCC3)C(=O)C2=CN1CCc1ccccn1 (stereo not given),"inconclusive: 2.82 µM [inhibitor, partial curve, poor fit]"
4,N#CC(C#N)=C1C(=O)N(CCN2CCOCC2)c2ccccc21,inactive
5,COc1ccc(N2CC(C)Cn3c2nc2c3c(=O)n(Cc3ccccc3F)c(=O)n2C)c(OC)c1 (stereo not given),"inconclusive: 6.31 µM [inhibitor, partial curve] and inconclusive: 10 µM [inhibitor, partial curve]"
6,Cc1ccccc1-c1nnc(-c2cccc3ccccc23)o1,inactive
7,COc1ccc2c(c1)C[C@]1(C)c3ccccc3C(=O)N(Cc3ccccc3)[C@H]21,"inconclusive: 2.51 µM [inhibitor, full curve]"
8,Cn1nc(C(=O)NNC(=O)C2CSC3(C)CCC(=O)N23)c2ccccc2c1=O (stereo not given),"inconclusive: 3.55 µM [inhibitor, single point]"
9,CCOc1ccc(S(=O)(=O)N2CCOCC2)cc1NC(=O)CSCC(=O)Nc1ccc(OC)cc1,inactive
10,CSc1ccccc1NC(=O)c1cccc(S(=O)(=O)N2CCN(C)CC2)c1,inactive
11,CCn1c2ccccc2c2cc(NC(=O)c3cccc([N+](=O)[O-])c3C)ccc21,active: 3.98 µM
12,COC(=O)[C@@]12CCCCN1[C@H](c1ccc(-c3ccc(OC)cc3)c(OC)c1)[C@@H]1C(=O)N(C)C(=O)[C@@H]12,"inconclusive: 3.98 µM [inhibitor, single point]"
13,CC[C@]1(c2ccccc2OC)ON(c2ccccc2C(F)(F)F)C1=O,"inconclusive: 14.1 µM [inhibitor, single point]"
14,CC(=O)Nc1ccc(-c2cc(-c3ccc(NC(C)=O)cc3)nc(-c3ccccc3)n2)cc1,"inconclusive: 3.16 µM [inhibitor, full curve]"
15,OCC1(Cc2ccc(Cl)cc2)CCN(Cc2ccc(F)c(F)c2)CC1,"inconclusive: 31.6 µM [inhibitor, single point]"
16,Cc1cccc(C(=O)N2CCCC(CCC(=O)N3CCN(c4ccccn4)CC3)C2)c1C (stereo not given),"inconclusive: 22.4 µM [inhibitor, single point]"
17,C[n+]1ccc(/C=C/c2c[nH]c3ccccc23)cc1,"inconclusive: 0.562 µM [inhibitor, full curve]"
18,CCOc1ccc(N=C(NC#N)SCC(=O)NC2CC2)cc1,"inconclusive: 2.51 µM [inhibitor, full curve, poor fit]"
19,C/C(=N\Nc1ccc(S(N)(=O)=O)cc1[N+](=O)[O-])c1ccc2c(c1)OCO2,"inconclusive: 0.501 µM [inhibitor, full curve, poor fit]"
20,Oc1oc(-c2ccccc2)nc1/C=N/c1ccccn1,inactive
21,Cc1ccc(Cn2nc(C)c(NC(=O)CSc3n[nH]c(C)c3[N+](=O)[O-])c2C)cc1,inactive
22,CCOC(=O)c1ccc(NC(=O)c2ccc(OC(C)C)c(OC)c2)cc1,"inconclusive: 6.31 µM [inhibitor, full curve, poor fit]"
23,CC(=O)c1cccc(NC(=S)Nc2ccc(F)cc2)c1,inactive
24,COc1cc(NC(=O)C2=CC(c3ccc(C)cc3)=NS(=O)(=O)N2C)cc(OC)c1OC,"inconclusive: 20 µM [inhibitor, single point]"

row,SMILES,Potency
1,COC(=O)C1=C(c2ccc(OC(F)(F)F)cc2)C[C@@H]2CC[C@H]1N2C(=O)NCCOc1ccc(OC)cc1,"inconclusive: 8.91 µM [inhibitor, partial curve]"
2,CCOCCCn1c(=S)[nH]c2cc(C(=O)NCCc3ccccc3)ccc2c1=O,"inconclusive: 5.62 µM [inhibitor, single point]"
3,COc1ccc(-c2cc(C(=O)Nc3ccccc3N3CCOCC3)c3ccccc3n2)cc1OC,"inconclusive: 5.62 µM [inhibitor, single point]"
4,COc1cc(OC)cc(C(=O)Nc2ccc(S(=O)(=O)Nc3ccccn3)cc2)c1,inactive
5,Brc1ccc(CSc2ccc3nnc(-c4cccnc4)n3n2)cc1,"inconclusive: 11.2 µM [inhibitor, single point]"
6,CC(CCc1ccccc1)NC(=O)C(=O)Nc1ccccc1 (stereo not given),"inconclusive: 14.1 µM [inhibitor, single point]"
7,O=C1c2ccc3c4c(ccc(c24)C(=O)N1c1cccc(O)c1)C(=O)N(c1cccc(O)c1)C3=O,active: 5.01 µM
8,O=C(C[C@H]1C(=O)N(C2CCCCC2)C[C@@H]1Cc1ccccc1)Nc1ccccc1,"inconclusive: 10 µM [inhibitor, partial curve]"
9,COc1ccc(OCC(=O)Nc2ccc3c(c2)nc(CCN2CCC(C)CC2)n3C)cc1,inactive
10,NC(=O)c1cccn(Cc2ccc(C(F)(F)F)cc2)c1=O,"inconclusive: 11.2 µM [inhibitor, partial curve]"
11,Cc1ccc2nc(-c3ccccc3)cc(C(=O)N(C)CC(=O)Nc3ccccc3Br)c2c1,"inconclusive: 10 µM [inhibitor, single point]"
12,Cc1ccc2nc(NC(=O)c3ccc(S(=O)(=O)N4CCCc5ccccc54)cc3)sc2c1,"inconclusive: 2.24 µM [inhibitor, partial curve]"
13,CC(=O)n1cc([C@@H]2C=C(C(=O)N3CCN(Cc4ccc5c(c4)OCO5)CC3)O[C@H](OCc3ccc(CO)cc3)C2)c2ccccc21,"inconclusive: 12.6 µM [inhibitor, single point]"
14,COc1ccc(Oc2ccccc2C#N)cc1,"inconclusive: 31.6 µM [inhibitor, single point]"
15,Cc1ccc(S(=O)(=O)c2cc3cc(Br)ccc3oc2=O)cc1,inactive
16,O=C(N/N=C/c1sc(N2CCOCC2)nc1-c1ccccc1)c1ccccc1O,"inconclusive: 22.4 µM [inhibitor, single point]"
17,O=C(Nc1nc(-c2cccs2)cs1)c1ccc(Cl)s1,"inconclusive: 7.94 µM [inhibitor, partial curve]"
18,CCCCCc1nnc(NC(=O)Cn2cnc3ccccc3c2=O)s1,inactive
19,COc1ccc(CCNC(=O)Cn2cccc2C(=O)c2ccccc2)c(OC)c1,"inconclusive: 22.4 µM [inhibitor, single point]"
20,CCCCCOC(=O)C1=C(C)Nc2ncnn2C1c1cccs1 (stereo not given),"inconclusive: 31.6 µM [inhibitor, single point]"
21,O=C(NC(=S)Nc1cccc(Cl)c1N1CCCCC1)c1ccc2c(c1)OCCO2,"inconclusive: 0.562 µM [inhibitor, full curve, poor fit]"
22,O=C1[C@H]2[C@H](C=CC[C@H]2C(=O)N2CCOCC2)CCN1Cc1ccccc1,"inconclusive: 5.01 µM [inhibitor, single point]"
